The least precise scores are not listed. Two further conditions of the source, in which the scores hardly spread, are not listed. Names with del lack the residues named; names with ins carry added residues between the positions named. For some assays here: The concentration of ogerin is not given here.
B1: GPR68, Q15743 (parent)
chain: MGNITADNSSMSCTIDHTIHQTLAPVVYVTVLVVGFPANCLSLYFGYLQIKARNELGVYLCNLTVADLFYICSLPFWLQYVLQHDNWSHGDLSCQVCGILLYENIYISVGFLCCISVDRYLAVAHPFRFHQFRTLKAAVGVSVVIWAKELLTSIYFLMHEEVIEDENQHRVCFEHYPIQAWQRAINYYRFLVGFLFPICLLLASYQGILRAVRRSHGTQKSRKDQIQRLVLSTVVIFLACFLPYHVLLLVRSVWEASCDFAKGVFNAYHFSLLLTSFNCVADPVLYCFVSETTHRDLARLRGACLAFLTCSRTGRAREAYPLGAPEASGKSGAQGEEPELLTKLHPAFQTPNSPGSGGFPTGRLA

Experiments:
[1] = variants of: B1; test: cAMP reporter score (Enrich2 score, wild type = 0); higher = more signal; HEK293T, FACS bins
[2] = variants of: B1; test: surface expression score (Enrich2 score, wild type = 0); higher = more signal; HEK293T, FACS bins

Variant | cAMP reporter score ([1]; pH 5.5) | cAMP reporter score ([1]; pH 6) | cAMP reporter score ([1]; pH 6, modulator: ogerin) | cAMP reporter score ([1]; pH 6.5, modulator: ogerin) | surface expression score [2]
L157_M158insGSG | -1.65 | 0.117 | -0.691 | -2.19 | -0.082
F156_L157del | 0.067 | 0.456 | – | -0.247 | -2.02
I154_F156del | -0.702 | -1.64 | -0.995 | 0.434 | -3.02
F156del | -0.176 | -0.024 | -1.61 | -0.474 | 0.135
L157_H159del | -1.32 | -0.725 | -1.09 | -1.25 | -1.51
Y155_L157del | -1.59 | -1.61 | -0.561 | -0.498 | -2.86
Y155_F156insG | -0.237 | -1.2 | -1.16 | -0.096 | –
F156_L157insGS | -1.86 | -1.45 | -1.38 | -0.99 | -0.889
S153del | -0.305 | -0.933 | -1.18 | -0.963 | 0.362
Y155W | -0.209 | -1.13 | -0.49 | -1.26 | -0.754
Y155H | -0.779 | -0.313 | -0.392 | -0.632 | -0.35
Y155S | -1.18 | – | -1.29 | -2.33 | -2.78
Y155E | -0.105 | -1.01 | -1.44 | -1.25 | -2.72
Y155Q | -1.48 | -0.394 | – | 1.63 | –
Y155D | 0.87 | -0.635 | -1.05 | -0.59 | -1.7
Y155L | 0.339 | 0.06 | -0.492 | -0.567 | 0.283
Y155G | -0.259 | -1.12 | -1.57 | -1.09 | -0.838
Y155R | -0.407 | -1.96 | -1.11 | -1.53 | -0.428
Y155I | 0.498 | -1.56 | -0.415 | – | 1.26
Y155F | 0.756 | – | -0.213 | -0.495 | -0.112
Y155P | -0.393 | – | 0.772 | -0.623 | –
Y155N | -0.391 | -1.35 | -0.707 | – | -0.29

Variant | cAMP reporter score ([1]; pH 5.5) | cAMP reporter score ([1]; pH 6) | cAMP reporter score ([1]; pH 6, modulator: ogerin) | cAMP reporter score ([1]; pH 6.5, modulator: ogerin) | surface expression score [2]
Y155C | -0.221 | -0.145 | -0.788 | -1.1 | -0.809
Y155T | -0.387 | – | -0.113 | -0.581 | 0.489
Y155K | -0.617 | – | -1.09 | -0.415 | -1.78
Y155M | 0.463 | -0.052 | -0.352 | -1.27 | -0.735
I154_Y155insGS | -1.87 | -1.55 | -1.39 | -1.28 | -0.487
F156A | -0.867 | -0.907 | – | -1.8 | -0.48
F156P | -1.05 | 1.75 | -1.49 | 0.909 | -1.2
F156Q | -2.26 | -0.422 | – | -0.339 | -1.22
F156R | -0.318 | -0.973 | -1.39 | -1.65 | -1.35
F156M | -0.789 | -1.18 | – | -0.664 | 0.721
F156K | -0.853 | -1 | -1.36 | -0.378 | –
F156L | -0.012 | -0.087 | -1.35 | -0.987 | 0.112
F156T | -1.05 | -0.673 | -1.77 | -1.08 | -0.821
F156D | -1.12 | -0.861 | – | -1.71 | -1.08
F156S | -1.38 | -0.073 | -2.52 | -1.75 | -1.24
F156E | -2.25 | – | – | -0.693 | -1.73
F156Y | 0.234 | 0.585 | -0.09 | -0.259 | -0.06
F156G | -2 | -1.02 | -1.4 | -1.24 | -2.21
F156I | 1.75 | 1.17 | 0.408 | -0.899 | 2.09
F156H | -0.986 | -1.54 | -1.14 | -1.7 | -1.33
F156C | -1.69 | -1.5 | -2.11 | -1.44 | –
F156V | -0.174 | -0.457 | -1.26 | -1.57 | -0.222

Variant | cAMP reporter score ([1]; pH 5.5) | cAMP reporter score ([1]; pH 6) | cAMP reporter score ([1]; pH 6, modulator: ogerin) | cAMP reporter score ([1]; pH 6.5, modulator: ogerin) | surface expression score [2]
S153Q | 0.444 | -0.786 | -0.997 | -1.75 | 0.54
S153T | -0.583 | -1.14 | -1.38 | -0.788 | 1.05
S153W | 1.28 | – | 1.59 | 2.63 | -0.283
S153V | 0.665 | -0.892 | -1.04 | -0.574 | 2.65
S153L | -0.33 | -0.551 | -0.659 | -1.11 | 1.57
S153P | -0.602 | -0.468 | -0.883 | -1.13 | -0.989
S153M | 0.647 | -0.153 | -0.394 | -1.21 | 1.52
S153Y | 0.351 | 1.49 | -0.713 | -0.54 | –
S153N | 0.166 | 1.97 | 1.22 | – | -0.393
S153R | -1.39 | -1.3 | -1.38 | -1.43 | -0.925
M158D | -0.407 | -0.666 | -0.632 | -0.609 | -1.3
M158E | -0.028 | – | – | 0.259 | -1.59
M158C | -0.404 | -0.297 | – | -0.441 | –
M158A | -0.491 | -0.101 | 0.11 | -0.57 | -0.455
M158G | 2.5 | -0.421 | -0.689 | – | 0.769
M158K | 0.621 | -0.265 | -0.208 | 0.81 | –
M158I | -0.407 | 0.855 | 0.919 | -0.416 | -0.207
M158F | 0.417 | -0.763 | 1.11 | -1.73 | -0.236
M158H | 0.604 | -0.45 | 0.21 | -0.11 | -0.134
I154del | -0.888 | -1.57 | -1.92 | -2.08 | -1.84
I154_Y155insGSG | -2 | -0.836 | -1.32 | -1.93 | -1.67

From the GPR68 mutational scans of Howard et al. (2025)
